{"source": "PubChem BioAssay AID662", "about": "(National Center for Advancing Translational Sciences (NCATS), 2007)", "note": "In all, about 71,000 compounds went through this assay and about 1,800 (2.5%) were called active. This list was built around the results that the source calls inconclusive (neither active nor inactive); the mix of calls is not that of the screen. The call rests on the fitted dose curve; in most records, active means well fitted activation curve with a large enough effect in the signal ratio, with a control signal flat (not every such curve was filed as active); inconclusive means small, poorly fitted or top-dose-only effect, or effect the other way, or a change in a side signal; inactive means flat fitted curve, though single readings scatter; the % refers to the signal ratio. Potencies of inconclusive entries are doubtful fits and often do not repeat. Potency means the concentration at half of the fitted maximal effect; tags describe the fitted curve by direction and shape."}
{"test": "Cell signaling CRE-BLA (Fsk stim); on activity change, negative = inhibition: % of control where 0% means no effect", "conditions": "CHO CRE-bla reporter (cAMP response element driving beta-lactamase), forskolin EC10, beta-lactamase ratio; activity change, negative = inhibition: at 38.2 µM (top of the series) unless noted", "outline": "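CRE-bla CHO reporter cells treated with compound titration plus EC10 NKH 477 (water-soluble forskolin), incubated 3 h at 37 °C; CCF4 loading 2 h at room temperature, 460/530 nm emission ratio read, AC50 values derived for positive or negative modulators.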"}
{"smiles": "OC(CN1CCN(c2cccc(C(F)(F)F)c2)CC1)c1c[nH]c2ccccc12", "note": "(stereo not given)", "Potency": "inconclusive: 5.01 µM [falling, partial curve]"}
{"smiles": "COc1ccccc1NC(=O)N1CCn2c(nc3ccccc32)C1", "activity change, negative = inhibition": "inconclusive: 16.6%"}
{"smiles": "CCOC(=O)C1CCN(CC(=O)Nc2c(C(=O)OC)[nH]c3ccc(Cl)cc23)CC1", "Potency": "inconclusive: 12.6 µM [rising, single point]"}
{"smiles": "CCCC(=O)Nc1ncnc2c1ncn2[C@@H]1O[C@H]2COP(=O)(O)O[C@@H]2[C@@H]1OC(=O)CCC", "activity change, negative = inhibition": "inconclusive: 23.9% [at 17.1 µM]"}
{"smiles": "CCN1C(=O)c2cccc3c(S(=O)(=O)Nc4c(C)n(C)n(-c5ccccc5)c4=O)ccc1c23", "activity change, negative = inhibition": "inactive: -1.74%"}
{"smiles": "C=C(Cl)COc1ccc2c(C)cc(=O)oc2c1", "activity change, negative = inhibition": "inconclusive: 22.5% [at 7.6 µM]"}
{"smiles": "CC(C)C(=O)N1CCN(c2ccc(NC(=O)c3ccc(Br)o3)cc2)CC1", "activity change, negative = inhibition": "inactive: 1.94%"}
{"smiles": "O=C(NC1CCCCCC1)c1cc(S(=O)(=O)N2CCC3(CC2)OCCO3)ccc1F", "Potency": "inconclusive: 3.16 µM [rising, single point]"}
{"smiles": "Cc1ccc(S(=O)(=O)/N=C(/Nc2nc(C)cc(C)n2)N2CCOCC2)cc1", "activity change, negative = inhibition": "inconclusive: 9.93% [at 7.6 µM]"}
{"smiles": "CSc1nc2ccc(S(=O)(=O)Nc3c(C)n(C)n(-c4ccccc4)c3=O)cc2s1", "activity change, negative = inhibition": "inconclusive: -21.8%"}
{"smiles": "O=C(NCC(c1cccnc1)N1CCN(c2ccc(F)cc2)CC1)c1ccc(F)cc1", "note": "(stereo not given)", "activity change, negative = inhibition": "inactive: -6.05%"}
{"smiles": "CC(C)NS(=O)(=O)c1ccc(OCC(=O)NCc2ccccc2)cc1", "activity change, negative = inhibition": "inconclusive: 14.4%"}
{"smiles": "CCOC(=O)Cc1c(C)nc2c(-c3ccc(Cl)cc3)c[nH]n2c1=O", "activity change, negative = inhibition": "inactive: 3.98%"}
{"smiles": "O=C(Nc1nc(-c2ccc(S(=O)(=O)N3CCCC3)cc2)cs1)C1COc2ccccc2O1", "note": "(stereo not given)", "activity change, negative = inhibition": "inconclusive: 13.5% [cytotoxic]"}
{"smiles": "Cc1ccc2nc3c(cc2c1)CN(Cc1ccco1)C(=NCC1CCCO1)S3", "note": "(stereo not given)", "activity change, negative = inhibition": "inactive: 1.39%"}
{"smiles": "CS(=O)(=O)Nc1cccc(-c2nc(NCc3ccccc3)c3ccccc3n2)c1", "Potency": "inconclusive: 15.8 µM [rising, partial curve]"}
{"smiles": "CCOC(=O)Nc1ccc2c(c1)N(C(=O)CCN1CCOCC1)c1ccccc1S2=O", "note": "(stereo not given)", "Potency": "inconclusive: 12.6 µM [falling, partial curve]"}
{"smiles": "COc1ncc2nc(-c3ccccc3)c(=O)n(C3CC3)c2n1", "Potency": "inconclusive: 15.8 µM [rising, partial curve]"}
{"smiles": "COC(=O)[C@@]1(Cc2ccc(F)cc2)[C@H]2c3cc(C(=O)N4CCCC4)n(CCCNc4ncc(C(F)(F)F)cc4Cl)c3C[C@H]2CN1C(=O)c1ccccc1", "activity change, negative = inhibition": "inactive: -8.63%"}
{"smiles": "O=C(N/N=C\\c1ccccc1O)c1ccccc1O", "activity change, negative = inhibition": "inconclusive: 9.92%"}
{"smiles": "CN(C)C(=O)c1ccc(-c2nccc(NCc3cccs3)n2)cc1", "activity change, negative = inhibition": "inactive: 18.1%"}
{"smiles": "O=C(NCc1ccco1)c1cc2nc(C3CC3)cc(C(F)(F)F)n2n1", "Potency": "inconclusive: 12.6 µM [rising, partial curve]"}
{"smiles": "CCCCn1c(CN2CCN(C)CC2)nc2ccccc21", "activity change, negative = inhibition": "inactive: -11.2%"}
{"smiles": "CSc1ncccc1C(=O)OCC(=O)NC(=O)NCCC(C)C", "activity change, negative = inhibition": "inactive: 25.7%"}
{"smiles": "COc1ccc2c(c1)CCc1c(C(=O)N3CCCc4ccccc43)noc1-2", "activity change, negative = inhibition": "inconclusive: -37.9%"}
{"smiles": "O=c1onc2cnc3ccccc3n12", "Potency": "inconclusive: 31.6 µM [rising, single point]"}
{"smiles": "COCCNC(=O)CCn1c(=O)oc2ccccc21", "activity change, negative = inhibition": "inactive: -25.9%"}
{"smiles": "C=CCOC(=O)C1=C(C)NC(SCC(=O)OCC)=C(C#N)C1c1ccc(O)c(OC)c1", "note": "(stereo not given)", "activity change, negative = inhibition": "inconclusive: 21.7%"}
{"smiles": "COc1ncc2nc(-c3cc(F)cc(F)c3)c(=O)n(C3CC3)c2n1", "activity change, negative = inhibition": "inconclusive: 17.9%"}
{"smiles": "CCCCNC(=O)CN(C1CCCCC1)S(C)(=O)=O", "activity change, negative = inhibition": "inconclusive: 16.3%"}
{"smiles": "Cc1cc(SCC(=O)Nc2c(C)n(C)n(-c3ccccc3)c2=O)n2c(nc3ccccc32)c1C#N", "Potency": "active: 25.1 µM"}
{"smiles": "O=S(=O)(Nc1cccc(-c2nc3cccnc3s2)c1)c1ccc2c(c1)OCCO2", "Potency": "active: 3.16 µM"}
{"smiles": "ClC(=Nc1cccc2ccccc12)N(c1ccccc1)c1ccccc1", "activity change, negative = inhibition": "inactive: 8.19% [at 7.6 µM]"}
{"smiles": "COc1ccc(NC(=O)c2cc3cc(OC)ccc3oc2=N)cc1", "activity change, negative = inhibition": "inactive: -15.3%"}
{"smiles": "O=C(Nc1cc(C(F)(F)F)ccc1Cl)C1CCN(c2nnc(-n3cccc3)s2)CC1", "activity change, negative = inhibition": "inconclusive: -8.22%"}
{"smiles": "COc1cc2nc(CN3C(=O)c4ccccc4C3=O)oc(=O)c2cc1OC", "activity change, negative = inhibition": "inactive: 8.38%"}
{"smiles": "Cc1cccc(-n2c(SCc3cc(=O)n4ccsc4n3)nc3ccccc32)c1", "Potency": "active: 1.58 µM"}
{"smiles": "O=C1c2cccnc2-c2ncccc21", "activity change, negative = inhibition": "inconclusive: -16.8%"}
{"smiles": "O=C(NC1CCCC1)C1CCCN1C(=O)Nc1ccc(Cl)cc1", "note": "(stereo not given)", "activity change, negative = inhibition": "inactive: -2.77%"}
{"smiles": "O=S(=O)(c1cccc(-c2nnc(SCc3nc4ccccc4s3)o2)c1)N1CCOCC1", "Potency": "inconclusive: 20 µM [rising, single point]"}
{"smiles": "O=C(Nc1nnc(C2CCCC2)s1)C1CCN(S(=O)(=O)c2ccc(Cl)cc2)CC1", "activity change, negative = inhibition": "inconclusive: -10.7%"}
{"smiles": "COC(=O)c1[nH]c2cc(OC)c(OC)cc2c1NC(=O)CN1CCN(Cc2ccccc2)CC1", "Potency": "active: 10 µM"}
{"smiles": "Cn1c(=O)c2c(SCc3cccnc3)nc(C3CC3)nc2n(C)c1=O", "Potency": "active: 3.16 µM"}
{"smiles": "Cc1ccc(S(=O)(=O)N2CCN(C(=O)CN3CCc4ccccc4C3)CC2)cc1", "activity change, negative = inhibition": "inactive: -28.7%"}
{"smiles": "NCCC[C@@H](CC(=O)N[C@@H]1CCNC[C@H]1C(=O)N[C@H](CC(=O)N[C@@H](CCC(=O)O)CC(=O)O)Cc1ccccc1)NC(=O)C[C@H](Cc1c[nH]c2ccccc12)NC(=O)[C@@H]1CNCC[C@H]1N", "activity change, negative = inhibition": "inactive: -6.15%"}
{"smiles": "COc1cc(-c2nc(-c3ccc(Br)o3)no2)cc(OC)c1OC", "Potency": "active: 2.51 µM"}
{"smiles": "Cc1ccc(CNc2ccc3c(c2)OCO3)c(C)c1", "activity change, negative = inhibition": "inconclusive: -22.7%"}
{"smiles": "CC(=O)c1cccc(S(=O)(=O)N(CCCO)Cc2cc3ccc(C)cc3[nH]c2=O)c1", "activity change, negative = inhibition": "inactive: 0.41%"}
{"smiles": "CCOC(=O)c1oc2ccccc2c1CSc1nnnn1-c1ccc(OC)cc1", "activity change, negative = inhibition": "inconclusive: -13.6%"}
{"smiles": "CC(C)(C)c1cc(NC(=O)COC(=O)C2CC2)n(-c2ccccc2)n1", "activity change, negative = inhibition": "inconclusive: 28%"}
{"smiles": "Cn1c(SC/C=C/c2ccccc2)nnc1-c1cnccn1", "activity change, negative = inhibition": "inactive: 25.2%"}
{"smiles": "O=C(Nc1cccnc1)C1CCCN1S(=O)(=O)c1ccc(Cl)c(Cl)c1", "note": "(stereo not given)", "Potency": "inconclusive: 0.01 µM [rising, full curve]"}
{"smiles": "CCn1c(=N)c(C(=O)NC)cc2c(=O)n3cccc(C)c3nc21", "Potency": "inconclusive: 12.6 µM [rising, partial curve]"}
{"smiles": "COc1cccc(C2CC(c3ccccc3)Nc3ncnn32)c1", "note": "(stereo not given)", "activity change, negative = inhibition": "inactive: 0.0274%"}
{"smiles": "O=C(NC1CCCCC1)C(c1ccco1)N(Cc1ccco1)C(=O)c1ccco1", "note": "(stereo not given)", "activity change, negative = inhibition": "inactive: -3.83%"}
{"smiles": "CCN1CCN(Cc2nc3c(c(=O)n(C)c(=O)n3C)n2CCc2ccccc2)CC1", "Potency": "inconclusive: 12.6 µM [rising, single point]"}
{"smiles": "CCCCCn1c(=NC(C)=O)c(C#N)cc2c(=O)n3ccccc3nc21", "Potency": "active: 3.16 µM"}
{"smiles": "c1ccc(CCNc2ncnc3nc[nH]c23)cc1", "activity change, negative = inhibition": "inconclusive: -23.7%"}
{"smiles": "CCCCc1ccc(C(=O)NC(C(=O)O)C(C)C)cc1", "note": "(stereo not given)", "activity change, negative = inhibition": "inactive: -13%"}
{"smiles": "COc1cccc(C(=O)N(Cc2ccco2)Cc2cc3cccc(C)c3[nH]c2=O)c1", "activity change, negative = inhibition": "inactive: -3.78%"}
{"smiles": "COc1ccc2nc(NC(=O)C3CCCN(S(=O)(=O)c4c(C)noc4C)C3)sc2c1", "note": "(stereo not given)", "activity change, negative = inhibition": "inconclusive: 25.3%"}
{"smiles": "CCOc1cc(N2CCOCC2)c(OCC)cc1NC(=O)c1nc2nccc(C)n2n1", "Potency": "inconclusive: 10 µM [rising, partial curve]"}
{"smiles": "O=c1oc2ccccc2c(O)c1/C=N/c1ccccn1", "Potency": "inconclusive: 25.1 µM [rising, single point]"}
{"smiles": "COc1ccc(-c2noc(-c3ccccc3C(=O)Nc3cccnc3)n2)cc1OC", "Potency": "inconclusive: 10 µM [rising, partial curve]"}
{"smiles": "COc1cccc(CNC(=O)C2CCCN(S(C)(=O)=O)C2)c1", "note": "(stereo not given)", "activity change, negative = inhibition": "inconclusive: -15.8%"}
{"smiles": "COc1cccc(Nc2ncc3ncc(=O)n(C[C@H]4CCCO4)c3n2)c1", "Potency": "inconclusive: 2.51 µM [falling, full curve]"}
{"smiles": "COc1cc(OC)cc(-c2nc3nc(C)c(CCC(=O)O)c(C)n3n2)c1", "activity change, negative = inhibition": "inconclusive: -9.59%"}
{"smiles": "O=C(NCc1cccs1)C1CCC(CNS(=O)(=O)c2ccc(Br)s2)CC1", "note": "(stereo not given)", "activity change, negative = inhibition": "inconclusive: 19.9%"}
{"smiles": "c1ccc(-c2ccccc2-c2nc(-c3ccncc3)no2)cc1", "Potency": "inconclusive: 12.6 µM [rising, partial curve]"}
{"smiles": "CCCCCOC(=O)c1cc(=O)[nH]c2ccccc12", "activity change, negative = inhibition": "inconclusive: 19.9%"}
{"smiles": "CC(=O)COc1ccc2c3c(c(=O)oc2c1)CCCC3", "Potency": "active: 15.8 µM"}
{"smiles": "O=C(Nc1ccccc1Cl)N1CCN(c2ccc3nnc(-c4ccccc4)n3n2)CC1", "activity change, negative = inhibition": "inactive: -8.8%"}
{"smiles": "CCOC(=O)c1sc(N)c(C#N)c1COC(=O)CNC(=O)c1ccccc1", "Potency": "inconclusive: 3.16 µM [rising, single point]"}
{"smiles": "COC(=O)CSc1nnc(-c2ccco2)o1", "activity change, negative = inhibition": "inactive: 1.77%"}
{"smiles": "COC(=O)C1(C)C=CC2(CCCCC2)N1C(=O)c1ccccc1", "note": "(stereo not given)", "activity change, negative = inhibition": "inactive: -6.75%"}
{"smiles": "NC(=O)c1nnn(Cc2cc(Cl)c(C(=O)c3ccc(Cl)cc3)c(Cl)c2)c1N", "activity change, negative = inhibition": "inactive: 25.2% [at 7.6 µM]"}
{"smiles": "COC(=O)c1ccc(OCC2c3cc(OC)c(OC)cc3CCN2C(=O)C2CC2)cc1", "note": "(stereo not given)", "Potency": "active: 5.01 µM"}
{"smiles": "Cc1cc(C)c2[nH]c(=O)c(C(c3nnnn3Cc3ccc4c(c3)OCO4)N3CCCCC3)cc2c1", "note": "(stereo not given)", "activity change, negative = inhibition": "inactive: -10.4%"}
{"smiles": "COc1ccc(CN(Cc2cc3ccc(C)cc3[nH]c2=O)Cc2nnnn2C2CCCC2)cc1", "activity change, negative = inhibition": "inconclusive: -21.3%"}
{"smiles": "CC(=O)N1CCc2c(sc(NC(=O)c3ccc4c(c3)OCCO4)c2C#N)C1", "Potency": "inconclusive: 12.6 µM [rising, single point]"}
